Measured values as given in patent US4988691A (priority 1989, dated 1991).

System: alpha1 -adrenergic receptors
Conditions: 3H-prazosin; table head 1nM (method: 0.5 nM); rat cerebral cortex membranes

Row | Structure (SMILES) | Displacement activity at α1-adrenergic receptors
1 | Cc1cc(C(=O)O[C@H]2C[C@H]3CC[C@@H](C2)N3C)on1 [Compound 5, 3-methylisoxazole-5-carboxylic acid 3-(endo-8-methyl-8-azabicyclo[3,2,1]octyl) ester hydrochloride] | inactive
2 | Cc1cc(C(=O)O[C@H]2C[C@H]3CC[C@@H](C2)N3C)no1 [Compound 8, 5-methylisoxazole-3-carboxylic acid 3-(endo-8-methyl-8-azabicyclo[3,2,1]octyl) ester hydrochloride] | inactive

Structures can show the parent of a compound that is named as a salt.
